The whole screen tested about 310,000 compounds, of which about 18,000 (5.8%) were called active. Inconclusive results, whose numbers are uncertain, are shown with a selection of clear calls. Calls follow the shape of the dose curve; as a rule, active = well fitted inhibition curve with a large enough effect; inconclusive = small, poorly fitted or top-dose-only effect, or another doubt; inactive = no such curve, though single readings can be large or run the other way. No potency is given beside an inconclusive call; the fits are too rough.
assay: Primary qHTS for delayed death inhibitors of the malarial parasite plastid, 48 hour incubation; settings: P. falciparum luciferase growth in erythrocytes; series mostly up to 28.7 µM
Summary of the method: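 Here the parasites carry a stable luciferase gene and grow inside erythrocytes in Albumax-based RPMI medium with compound for one erythrocytic cycle. Activity is scored as loss of luminescent signal.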
% is scaled to controls: 0 for no effect and ±100 for the full control effect; potency is read from the fitted curve at half-maximal effect; tags tell the direction and shape of the fitted curve.

Row | SMILES | Potency | activity change, negative = inhibition
1 | COc1ccc(N(CC(=O)Nc2cc(C)cc(C)c2)S(=O)(=O)c2ccccc2[N+](=O)[O-])c(OC)c1 | inconclusive [inhibitor, partial curve] | –
2 | COc1ccc(N(C(=O)c2snc(C(N)=O)c2N)C(C(=O)NC2CCCC2)c2ccco2)cc1OC (stereo not drawn) | inconclusive [inhibitor, single point] | –
3 | COc1cccc(CN(C)CC2CCCN(CCc3ccc(Cl)cc3)C2)c1OC (stereo not drawn) | active: 5.86 µM | –
4 | CCOc1ccc(NC(=O)CCC(=O)N/N=C/c2ccc([N+](=O)[O-])s2)cc1 | active: 11.7 µM | –
5 | O=C(c1ccc(Sc2ccc(F)cc2)c([N+](=O)[O-])c1)N1CCOCC1 | inconclusive [inhibitor, full curve, poor fit] | –
6 | COc1ccc(CCNC(=O)COc2coc(CN3c4ccccc4CC3C)cc2=O)cc1OC (stereo not drawn) | active: 9.28 µM | –
7 | CCc1nnc(NS(=O)(=O)c2ccc(NCc3cc(Cl)ccc3O)cc2)s1 | inactive | –
8 | C=CCC(CC(O)COCCC)C(=O)NNC(=S)Nc1ccccc1 (stereo not drawn) | inactive | –
9 | CC1C/C(=N\NC(N)=S)c2cc(Cl)ccc2S1 (stereo not drawn) | inconclusive [inhibitor, single point] | –
10 | COc1ccccc1CCNC(=O)CSc1nc(=O)[nH]c2c1CCC2 | inconclusive [inhibitor, partial curve, poor fit] | –
11 | Cc1ccc(C(=O)N/C(=C/c2ccc(-c3cccc([N+](=O)[O-])c3)o2)C(=O)NC(C)C)cc1 | inconclusive [inhibitor, partial curve, poor fit] | –
12 | O=C(NNC(=O)C1CC1c1ccccc1)Nc1ccccc1 (stereo not drawn) | inactive | –
13 | O=C(Nc1cccc(F)c1)C1CCCN(S(=O)(=O)c2cccc3cccnc23)C1 (stereo not drawn) | active: 9.28 µM | –
14 | Cc1cccc(C2CN(C)CCc3c2cc(O)c(O)c3Cl)c1 (stereo not drawn) | inconclusive [inhibitor, single point] | –
15 | CC(=O)c1ccc(C(=O)Nc2ccc3c(c2)C(=O)NC3=O)cc1 | inactive | –
16 | CCC(C)N(NC(C)=O)c1nc(Cl)nc(NC(C)C)n1 (stereo not drawn) | active: 2.08 µM | –
17 | Cc1[nH]nc2c1C1(C(=O)N(Cc3ccc(Cl)cc3)c3ccccc31)C(C#N)=C(N)O2 (stereo not drawn) | active: 13.1 µM | –
18 | COc1ccc(-c2ccc(/C=N/NC(=O)Cc3nnc(N)s3)o2)cc1Cl | inconclusive [inhibitor, single point] | –
19 | CN(CC(=O)NC(=O)NC1CCCCC1)Cc1ccccc1 | inactive | –
20 | COc1ccc(CN(C(=O)c2ccc3c(c2)OCCO3)C(C(=O)NC2CCCCC2)c2ccc3ncccc3c2)cc1 (stereo not drawn) | inconclusive [inhibitor, partial curve] | –
21 | CCC(=O)N1CCc2cc(Br)cc(S(=O)(=O)NCCN3CCCCC3CC)c21 (stereo not drawn) | inconclusive [inhibitor, single point] | –
22 | CC(C)[C@H](NC(=O)N1CCn2c1nc1ccccc12)C(=O)NCc1ccc2c(c1)OCO2 | inactive | –
23 | NC(=O)C1CCCN(C(=O)c2ccc(Cl)c(S(=O)(=O)N3CCc4ccccc43)c2)C1 (stereo not drawn) | inconclusive [inhibitor, partial curve] | –

Row | SMILES | Potency | activity change, negative = inhibition
24 | Cc1cc(=O)oc2cc(OCCc3ccccc3)ccc12 | inactive | –
25 | C=C1[C@@H](C)C2[C@H](Cc3ccccc3)NC(=O)[C@]23OC(=O)CC[C@H](O)CCC[C@H](C)C/C=C/[C@H]3[C@@H]1O (stereo partly drawn) | active: 0.928 µM | –
26 | CC1CN(C2CCN(S(=O)(=O)c3ccc4ccccc4c3)CC2)CC(C)O1 (stereo not drawn) | inconclusive [inhibitor, partial curve] | –
27 | COc1ccc(NS(=O)(=O)c2ccc(NC(=O)c3ccc(N(C)S(C)(=O)=O)cc3)cc2)cc1 | inconclusive [inhibitor, partial curve] | –
28 | Cc1nc(SC(C)C(=O)NC2CCCC2)c2ccccc2n1 (stereo not drawn) | inconclusive [inhibitor, single point] | –
29 | CCCCOc1ccc(C(=O)NN2C(=O)NC3(CCCCC3)C2=O)cc1OC | inconclusive [inhibitor, partial curve, poor fit] | –
30 | CCCCC1=CC2=CC(=O)C(C)(OC(=O)CC)C(=O)C2=CN1Cc1ccc2c(c1)OCO2 (stereo not drawn) | inconclusive [inhibitor, single point] | –
31 | O=C(NNC(=S)Nc1ccccc1)c1cc(-c2cccnc2)nc2ccccc12 | inconclusive [inhibitor, full curve, poor fit] | –
32 | CN(Cc1ccccc1)CC(O)COc1ccc(CNCCc2cccnc2)cc1 (stereo not drawn) | active: 5.22 µM | –
33 | Cc1ccc(C)c(NC(=O)C(CC(=O)O)C2CCCO2)c1 (stereo not drawn) | inactive | –
34 | COc1ccc(C)cc1S(=O)(=O)Nc1cccc(C)c1 | – | inactive: -3.68% [at 5.75 µM]
35 | COc1cc(CN2CCN(c3cc(C)ccc3C)CC2)ccc1O | active: 10.4 µM | –
36 | O=C(NCC(=O)N1CC(O)CC1C(=O)N1CC(O)CC1C(=O)OCc1ccccc1)OCc1ccccc1 (stereo not drawn) | inactive | –
37 | Cc1ccc(C)c(Cn2c(O)c(N=NC(=S)Nc3ccccc3F)c3ccccc32)c1 | inconclusive [inhibitor, partial curve] | –
38 | CC1CCN(S(=O)(=O)c2ccc3c(c2)c(=O)c(C(=O)N2CCCCC2)cn3C)CC1 | inconclusive [inhibitor, single point] | –
39 | CCC(NS(=O)(=O)c1ccc(C)cc1)C(=O)N1CCOCCOCCOCCOCC1 (stereo not drawn) | inactive | –
40 | COc1ccc(OC)c(NC(=O)c2cccc3c2C(=O)N(C2CCCCC2)C3)c1 | inconclusive [inhibitor, partial curve] | –
41 | COc1ccc(C2/C=C\CN(S(=O)(=O)c3ccc(-c4ccccc4)cc3)CC(=O)N2Cc2ccc(F)cc2)cc1 (stereo not drawn) | active: 11.7 µM | –
42 | Cc1ccc(S(=O)(=O)c2nc(Nc3ccccc3N3CCOCC3)sc2Cl)cc1 | inconclusive [inhibitor, single point] | –
43 | O=C(CCn1c(=O)oc2ccccc21)N1CCc2ccccc21 | inconclusive [inhibitor, full curve, poor fit] | –
44 | O=C(COc1ccc(-c2ccccc2)cc1)NNC(=O)NC1CCCCC1 | inconclusive [inhibitor, partial curve, poor fit] | –
45 | COc1ccc(NC(=O)C2CCC(N3C(=O)C4CCCCC4C3=O)CC2)cc1 (stereo not drawn) | inactive | –
46 | CSc1nc(-c2ccccc2)c(C#N)c(=O)[nH]1 | inactive | –

Row | SMILES | Potency | activity change, negative = inhibition
47 | COc1cccc(C2c3[nH]c4ccccc4c3CCN2CCCn2cccn2)c1 (stereo not drawn) | inconclusive [inhibitor, partial curve, poor fit] | –
48 | COc1ccc(S(=O)(=O)Nc2ccccc2Cl)cc1NC(C)=O | – | inactive: -12.6% [at 5.75 µM]
49 | Cc1c(C(=O)N(CCc2ccccc2)Cc2ccccc2)cccc1[N+](=O)[O-] | inconclusive [inhibitor, single point] | –
50 | O=S(=O)(c1ccccc1)[C@@]1(c2ccc(Br)cc2)C[C@@H]2ON=C(c3ccccc3)[C@@H]2C1 | inconclusive [inhibitor, partial curve] | –
51 | NS(=O)(=O)c1ccc(NC(=O)/C=C/c2ccc(S(=O)(=O)NCc3ccco3)cc2)cc1 | inactive | –
52 | N#Cc1nc(-c2ccco2)oc1N1CCN(C(c2ccccc2)c2ccccc2)CC1 | inconclusive [inhibitor, single point] | –
53 | Cc1cccc(C(=O)Oc2ccc(/C=N/NC(=O)c3cc(O)cc(O)c3)cc2)c1 | inconclusive [inhibitor, single point] | –
54 | CCOC(=O)C1CCCN(CC(=O)Nc2nc(-c3ccccc3)cs2)C1 (stereo not drawn) | inconclusive [inhibitor, partial curve, poor fit] | –
55 | COc1cccc(CN(C)C(=O)c2cc(-c3cccs3)nc3ccccc23)c1 | inconclusive [inhibitor, single point] | –
56 | CCCCCCn1c(=O)c(C(=O)Nc2ccncc2)c(O)c2ccccc21 | active: 2.94 µM | –
57 | O=C(COc1ccc2ccccc2c1)NCCc1ccc2c(c1)OCCO2 | inactive | –
58 | CCOC(=O)C1CCN(Cc2cccc(OCc3ccccc3)c2)CC1 | inactive | –
59 | Cc1ccc(NC(=O)c2ccc(OCc3c(C)noc3C)cc2)c(C)c1 | inconclusive [inhibitor, partial curve] | –
60 | Fc1cccc(CNc2ncnc3ccc(-c4ccoc4)cc23)c1 | inconclusive [inhibitor, single point] | –
61 | CCN1C(=O)[C@H]2[C@@H](c3ccc(C)cc3)N3C(=O)N(c4cccc(Cl)c4)C(=O)[C@@]3(Cc3ccc(Cl)cc3)[C@H]2C1=O | inconclusive [inhibitor, single point] | –
62 | C=CC(C)(O)CCC=C(C)C (stereo not drawn) | inconclusive [inhibitor, single point] | –
63 | CCSc1nc(C)cc(C)c1S(=O)(=O)c1ccccc1C | inconclusive [inhibitor, single point] | –
64 | COc1cc(/C=C2\SC(N3CCC(C)CC3)=NC2=O)ccc1O | inconclusive [inhibitor, partial curve] | –
65 | CC(/C=N/NC(=O)c1ccncc1)=C\c1ccccc1 | inconclusive [inhibitor, partial curve] | –
66 | CCC(=O)O[C@@H](OP(=O)(CCCCc1ccccc1)CC(=O)N1C[C@H](C2CCCCC2)C[C@H]1C(=O)O)C(C)C (stereo partly drawn) | inactive | –
67 | O=C(CSc1ccccn1)Nc1ccc2ccccc2c1 | inactive | –
68 | CCCc1ccc2oc(C(=O)N3CCN(CC(=O)NC(C)C)CC3)c(C)c2c1 | inconclusive [inhibitor, partial curve, poor fit] | –

Reference: PubChem BioAssay AID504832 (National Center for Advancing Translational Sciences (NCATS), 2011)
